The whole screen tested about 380,000 compounds, of which about 4,000 (1.1%) were called active. This list was built around the results that the source calls inconclusive (neither active nor inactive); the mix of calls is not that of the screen. Calls come from the whole dose curve; as a rule, active = well fitted activation curve with a large enough effect; inconclusive = small, poorly fitted or top-dose-only effect; inactive = no such curve, though single readings can be large or run the other way. Where the call is inconclusive, the potency comes from a doubtful curve fit.
Experiment: qHTS Assay to Identify Small Molecule Activators of BRCA1 Expression; note: nearly all actives have a fitted effect of over 80% in size
Conditions: MCF7-BRCA1-FFLuc reporter, luminescence, 48 h; activation: at 46.1 µM (top of the series), scaled: vehicle 0%, 10 µM genistein 100% unless noted
Outline: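 Compounds are tested at multiple concentrations on MCF7 BRCA1-luciferase reporter cells seeded at 2000 per well; after 48 h, a single luminescence end-point is taken and curves fitted to the normalized data.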
Potency is the fitted concentration of half-maximal effect; tags give direction and shape of the fitted curve.

Structure (SMILES) | activation | Potency
O=C(COC(=O)CNS(=O)(=O)c1c(F)cccc1F)NC(=O)NC1CCCCC1 | inactive: 3.75% | –
CCN(CC)S(=O)(=O)c1cccc(C(=O)Nc2ccc3c(c2)OCO3)c1 | – | inconclusive: 3.16 µM [activator, partial curve, poor fit]
COc1ccc(CCNC(=O)CN2C(=O)NC(c3ccccc3)(c3ccccc3)C2=O)cc1 | inactive: -14.6% | –
CCSc1nc2ccccc2n1CCOc1ccccc1 | – | active: 14.1 µM
Cc1ccc(-c2nnc(SCC(=O)Nc3cccc(C(=O)N4CCOCC4)c3)n2C)cc1 | – | inconclusive: 35.5 µM [activator, single point]
Cc1ccc(-c2nc3ccc(C(=O)O)cc3nc2-c2ccc(C)cc2)cc1 | inactive: -31.1% | –
CC(=O)c1cccc(OCc2cc(C(=O)NCc3nc(C)c(C)s3)no2)c1 | – | inconclusive: 35.5 µM [activator, single point]
CCOC(=O)c1sc(NC(C)=O)nc1C | inactive: -43.1% | –
COc1ccc(OC)c(-c2csc(NC(=O)c3ccc4c(c3)OCO4)n2)c1 | – | inconclusive: 12.6 µM [activator, partial curve, poor fit]
N#CCCN1CCN(C(=S)c2ccc(-c3cccc(Cl)c3)o2)CC1 | – | active: 10 µM
Clc1ccc(/C=C/c2ccc3ccccc3n2)c(Cl)c1 | – | inconclusive: 12.6 µM [activator, partial curve, poor fit]
Cc1cccc(OCCn2nnc3ccccc32)c1C | – | inconclusive: 15.8 µM [activator, partial curve, poor fit]
COc1ccccc1NC(=S)NN=C(C)c1ccccn1 | inconclusive: -89.4% [activator] | –
CCc1ccc(OCC(=O)O/N=C(\N)c2cccnc2)cc1 | – | inconclusive: 15.8 µM [activator, single point]
CC(=O)COc1ccc2cc(-c3ccccc3)c(=O)oc2c1 | – | inconclusive: 0.631 µM [activator, full curve, poor fit]
CC(C)Oc1ccc(-c2cc(C(=O)NCCN3CCOCC3)c3ccccc3n2)cc1 | – | inconclusive: 11.2 µM [activator, partial curve, poor fit]
O=C(O)c1cccc2c1-c1ccccc1/C2=N\Nc1ccccc1 | – | inconclusive: 2 µM [activator, full curve, poor fit]
COc1cc(C)ccc1OCc1cc(C(=O)NC(C)Cn2cncn2)no1 (configuration not stated) | – | active: 5.01 µM
Cc1cc(N2CCOCC2)nc2ccc(NC(=O)CCC(=O)N3CCN(c4ccccc4F)CC3)cc12 | – | inconclusive: 2.24 µM [activator, full curve, poor fit]
Cc1ccc2nc(-c3ccc(Cl)c(NC(=O)c4ccc5c(c4)OCCO5)c3)oc2c1 | – | inconclusive: 17.8 µM [activator, partial curve, poor fit]
Cc1cc(C)cc(NC(=O)CCc2c(C)nn(-c3ccc(N4CCCCC4)nn3)c2C)c1 | – | inconclusive: 11.2 µM [activator, partial curve, poor fit]
C=CCNc1nc(NC2CCN(C)CC2)c2cc(OC)c(OC)cc2n1 | inactive: -2.55% | –
Clc1ccc(Cn2nc(-c3ccccc3)nc2-c2ccccc2)cc1 | – | inconclusive: 15.8 µM [activator, single point]
COCCCNC(=O)c1ccc(Cn2c(=O)c3ccccc3n(CC(=O)Nc3c(C)cccc3C)c2=O)cc1 | inactive: -27.1% | –

Structure (SMILES) | activation | Potency
O=C(NCC1COc2ccccc2O1)c1ccc(Br)s1 (configuration not stated) | – | inconclusive: 14.1 µM [activator, single point]
Fc1ccc(COc2ccc(-c3nnco3)cc2)cc1 | – | active: 11.2 µM
O=C(Nc1ccc(-c2nnc(-c3ccccc3)o2)cc1)C1CCCO1 (configuration not stated) | – | inconclusive: 1 µM [activator, full curve, poor fit]
COc1cccc(-c2nn(-c3ccccc3)cc2CO)c1 | – | inconclusive: 2.51 µM [activator, full curve, poor fit]
CCN(CC)c1ccc(-n2c(C)c(C(C)=O)c(C(C)=O)c2C)cc1 | inactive: -43.9% | –
CC(O)CNCCCCOc1ccc(OCc2ccccc2)cc1 (configuration not stated) | – | inconclusive: 7.94 µM [activator, partial curve, poor fit]
Nc1n[nH]c(N)c1N=Nc1ccc2c(c1)OCO2 | – | active: 10 µM
O=C(CSc1nnc(NC2CC2)s1)c1ccc[nH]1 | – | inconclusive: 1.58 µM [activator, partial curve, poor fit]
O=C(Nc1ccc2c(c1)CCC2)c1ccccc1Br | – | inconclusive: 1 µM [activator, full curve, poor fit]
Cc1ccc(S(=O)(=O)N2c3cc(C)ccc3OCC2C(C)(C)C)cc1 (configuration not stated) | inactive: -87.5% | –
CCN(CC)C(=S)SCC(=O)c1ccc(Br)cc1 | – | active: 12.6 µM
O=C1c2ccccc2S(=O)(=O)N1CC1CC(c2ccccc2Cl)=NO1 (configuration not stated) | – | active: 5.01 µM
CCc1ccc(OC(=O)Nc2ccccc2)cc1 | – | active: 2.82 µM
Brc1ccc(-c2noc(-c3ccccc3)n2)o1 | – | inconclusive: 11.2 µM [activator, partial curve, poor fit]
COc1cc(C(=O)OCC(=O)Nc2cc(C)on2)ccc1OCc1ccccc1Cl | – | inconclusive: 0.794 µM [activator, full curve, poor fit]
Cc1ccc(C(=O)CSc2ccccn2)cc1 | – | inconclusive: 2 µM [activator, partial curve, poor fit]
CCc1ccc(C2CC(c3ccco3)=NN2S(C)(=O)=O)cc1 (configuration not stated) | – | inconclusive: 0.631 µM [activator, full curve, poor fit]
CCCN1CCC(=O)N([C@H](CSc2ccccc2)CC(C)C)CC1 | – | inconclusive: 5.62 µM [activator, full curve, poor fit]
COc1cc(CNCc2ccccc2Cl)ccc1OCC(=O)NC1CCCCC1 | inactive: -13.9% | –
CN(C)c1ccc(N/C=C/C(=O)c2ccco2)cc1 | – | inconclusive: 0.794 µM [activator, full curve, poor fit]
CCCn1nnc(NC(=O)c2ccc(Cl)cc2Cl)n1 | – | active: 2.51 µM
CN(N=O)c1ccc(/C=C2\C=Cc3ccccc32)cc1 | – | inconclusive: 5.62 µM [activator, partial curve, poor fit]
CCCCc1ccc(-c2ccc(Br)cc2O)nc1 | – | inconclusive: 1.58 µM [activator, full curve, poor fit]
COc1ncccc1-c1nnn(-c2ccc(Cl)nc2)n1 | – | inconclusive: 35.5 µM [activator, single point]

Structure (SMILES) | activation | Potency
O=C(Nc1ccc2c(c1)OCCO2)N1CCN(Cc2ccccc2)CC1 | – | active: 12.6 µM
O=C(/C=C/c1ccc(Cl)cc1)Nc1nccs1 | – | inconclusive: 0.562 µM [activator, full curve, poor fit]
CCOC(=O)c1ccc(NC(=S)N2CCSC2c2ccc(Br)cc2)cc1 (configuration not stated) | inactive: -25.8% | –
Cc1ccc(Nc2nc(N)c3ccccc3n2)cc1Cl | – | inconclusive: 0.631 µM [activator, full curve, poor fit]
CCOc1ccc(C(=O)Nc2cccc(SC)c2)cc1 | – | inconclusive: 14.1 µM [activator, partial curve, poor fit]
Cc1cc(Cl)c2oc(C(=O)N(C)Cc3ccon3)c(C)c2c1 | – | inconclusive: 1.41 µM [activator, full curve, poor fit]
Cc1ccc(CNC(=O)CSc2ncccn2)cc1 | – | inconclusive: 10 µM [activator, partial curve, poor fit]
CSc1ccccc1OCc1cc(C(=O)N(C)Cc2ccncn2)no1 | – | inconclusive: 14.1 µM [activator, single point]
C[C@H](CO)N1C[C@H](C)[C@@H](CN(C)S(C)(=O)=O)Oc2ccc(NC(=O)C3CCCCC3)cc2C1=O | inactive: -5.76% | –
Cc1c(NC(=O)Nc2ccc([N+](=O)[O-])cc2)c(=O)n(-c2ccccc2)n1C | inactive: -4.85% | –
Oc1cccc2ccc(/C=C/c3cccs3)nc12 | inactive: -45% | –
CCCn1c(C)cc(C(=O)Cn2nnc3ccccc3c2=O)c1C | – | inconclusive: 0.891 µM [activator, full curve, poor fit]
Nc1nc(CSc2ccccc2)nc(N2CCCCC2)n1 | – | inconclusive: 11.2 µM [activator, partial curve, poor fit]
Cc1nnc(NC(=O)C2CCCC2)s1 | inactive: -3.69% | –
O=C(Nc1cccnc1)c1ccc2ccccc2c1O | – | inconclusive: 5.62 µM [activator, full curve, poor fit]
CCCCC(=O)N1CCN(c2nc3ccc(Cl)cc3s2)CC1 | – | inconclusive: 10 µM [activator, partial curve, poor fit]
Cc1nnc(OCc2nc3ccccc3n2C)c2ccccc12 | – | inconclusive: 12.6 µM [activator, partial curve, poor fit]
COc1ccc(Nc2ncnc3sc(C)cc23)cc1 | – | active: 8.91 µM
O=S(=O)(NN1CCOCC1)c1cc(Cl)cc(Cl)c1O | inactive: -3.01% | –
COc1ccc(NC(=O)c2ccccc2)c([N+](=O)[O-])c1 | – | active: 7.94 µM
CN(c1ccc(C(=O)NCCSC(C)(C)C)cc1)S(C)(=O)=O | – | inconclusive: 5.01 µM [activator, partial curve, poor fit]
COC(=O)c1ccc(CN2C(=O)NC(Cc3c[nH]c4ccccc34)C2=O)cc1 (configuration not stated) | – | inconclusive: 7.94 µM [activator, partial curve, poor fit]
O=C(CCC(=O)c1cccs1)c1cccs1 | – | inconclusive: 1.58 µM [activator, partial curve, poor fit]
O=C(Nc1ccccc1F)Oc1cccc(OC(=O)Nc2ccccc2F)c1 | inactive: 74.7% | –
